Data: PubChem BioAssay AID488969 (Vanderbilt High Throughput Screening Facility, 2010)
Over roughly 110,000 compounds, “z-score” has its median near -0.1; the highest 2% begin near 2. The list shows a part of the results. The source made the active and inactive calls.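 The calls were made as follows: active = z-score in the third read window above 3 or below -3; inactive = the rest.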

What follows are compounds tested against Metabotropic glutamate receptor 8 (Rattus norvegicus) (UniProt P70579) (assay: rat mGluR8 modulators via GIRK flux, primary screen, cell-based, thallium flux, HTS (AID 488969)). Conditions: HEK293 rat mGluR8, GIRK (G protein-gated inwardly rectifying potassium channel) thallium flux, FluoZin2; at 10 µM; stronger effect = higher value; submaximal glutamate (EC20) added with thallium.
Sequence of UniProt P70579 (P70579 whole entry, looked up): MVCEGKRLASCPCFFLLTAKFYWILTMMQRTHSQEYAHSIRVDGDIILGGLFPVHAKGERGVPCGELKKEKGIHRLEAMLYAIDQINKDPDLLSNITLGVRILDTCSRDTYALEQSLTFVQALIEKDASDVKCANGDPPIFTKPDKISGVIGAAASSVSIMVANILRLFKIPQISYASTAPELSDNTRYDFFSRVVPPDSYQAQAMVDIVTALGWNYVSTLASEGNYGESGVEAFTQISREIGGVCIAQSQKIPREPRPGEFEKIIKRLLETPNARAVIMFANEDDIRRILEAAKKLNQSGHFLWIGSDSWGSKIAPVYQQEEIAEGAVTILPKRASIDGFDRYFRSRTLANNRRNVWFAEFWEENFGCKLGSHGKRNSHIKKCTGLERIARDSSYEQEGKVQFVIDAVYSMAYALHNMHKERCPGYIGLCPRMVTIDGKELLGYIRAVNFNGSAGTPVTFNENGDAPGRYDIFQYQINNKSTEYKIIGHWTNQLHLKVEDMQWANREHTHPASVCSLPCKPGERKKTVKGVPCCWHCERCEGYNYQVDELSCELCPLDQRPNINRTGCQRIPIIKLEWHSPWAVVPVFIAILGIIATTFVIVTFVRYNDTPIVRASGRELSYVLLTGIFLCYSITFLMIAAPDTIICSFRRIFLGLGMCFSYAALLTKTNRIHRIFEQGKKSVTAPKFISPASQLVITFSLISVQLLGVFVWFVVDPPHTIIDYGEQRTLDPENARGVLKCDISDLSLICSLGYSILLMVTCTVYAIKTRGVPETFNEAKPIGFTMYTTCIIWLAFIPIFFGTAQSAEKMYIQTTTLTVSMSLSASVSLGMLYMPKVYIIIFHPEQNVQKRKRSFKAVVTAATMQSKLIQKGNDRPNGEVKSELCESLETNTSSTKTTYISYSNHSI
`CCOC(=O)CCCNS(=O)(=O)c1c(C)ccc2nsnc12` was tested, and the z-score was 1.23. `Cc1cc(C)c(NC(=O)COC(=O)c2cccc3c2C(=O)c2ccccc2C3=O)c(C)c1` showed a z-score of -0.5. With `Cc1cc(C)nc(SCC(=O)Nc2ncc(C(F)(F)F)cc2Cl)n1` the z-score was -0.327. In the case of `O=C(c1ccccc1)N1CC(COc2ccccc2)OC(c2cccnc2)O1` (stereo unspecified), the z-score is reported as -0.0143. `COC(=O)c1ccccc1NC(=O)Cc1ccccc1OC` was tested, and the z-score was -0.94. `CN(C)C(=O)CCc1nc2sc3c(c2c(=O)[nH]1)CCCC3` was tested, and the z-score was -0.215. `CC1CCCN(C(=O)COC(=O)c2n[nH]c3ccccc23)C1` (stereo unspecified) was tested, and the z-score was -2.57. For `COCCCn1c(C)nnc1SCC(=O)NCc1ccco1`, the z-score was -0.305. For `CC1CN(CCCCOc2ccc3ccccc3c2)CC(C)O1` (stereo unspecified), the z-score was 0.362. `CSc1cccc(NS(=O)(=O)c2cccs2)c1` was tested, and the z-score was 0.381. Work on `Cc1ccc(CSC2=Nc3ccccc3C3=NC(CCC(=O)NCc4ccco4)C(=O)N23)cc1` (stereo unspecified) yielded a z-score of -0.342. `CCN(c1cccc(C)c1)S(=O)(=O)c1ccc2c(c1)CCN2C(C)=O` showed a z-score of 0.111. In the case of `Cc1cc(C(=O)CSc2nnc(N)s2)c(C)n1Cc1cccs1`, the z-score is reported as -0.225. In the case of `CCC(C)Nc1nc(OC)nc(N(C)C#N)n1` (stereo unspecified), the z-score is reported as 0.227. Compound `S=c1[nH]nc(-c2ccncc2)n1Cc1ccccc1` has a z-score of 1.42. `CCOc1ccc(N=C(NC#N)SCC)cc1` was tested, and the z-score was -0.0898. For `CCn1c(Cc2cccs2)nnc1SCC(=O)c1ccc(C)cc1`, the z-score was -0.584. Compound `Cc1cccc(CSC2=NCCN2C(=O)c2ccc(Br)o2)c1` has a z-score of -1.03. `O=C(CSc1nnc(CNc2ccc(F)cc2)o1)N1c2ccccc2Sc2ccccc21` was tested, and the z-score was 0.359. `O=C(O)C1CC(=O)N(c2ccc(OCc3ccccc3)cc2)C1` (stereo unspecified) was tested, and the z-score was -0.183. With `Cc1cccc(C)c1OCCCCCNCCO` the z-score was 0.445. `N/C(=N\OC(=O)C(c1ccccc1)c1ccccc1)c1cccnc1` was tested, and the z-score was -0.28. With `CCOC(=O)C1(C)/C(=N/Nc2cccc(Cl)c2)C(=O)C(=O)N1c1ccccc1` (stereo unspecified) the z-score was -0.387. `O=C(CSc1nnc(-c2cnccn2)n1Cc1ccco1)Nc1ccc(Br)cc1` was tested, and the z-score was -0.611. `C=CCn1c(SCC(=O)c2[nH]c(C)c(C(=O)OCC)c2C)nc2scc(-c3ccc(OC)c(OC)c3)c2c1=O` showed a z-score of -0.123. `Cc1cccc(C(C)C)c1NC(=O)COC(=O)Cc1ccsc1` gave a z-score of 0.0528. Compound `Cc1ccc(C(=O)c2oc3ccccc3c2N)cc1` has a z-score of 0.974. Work on `COc1ccc(C(=O)Nc2ccc(C(=O)OCC(=O)c3ccccc3)cc2)cc1` yielded a z-score of 0.273. Work on `Cc1ccc(S(=O)(=O)ON=C2CCN(S(=O)(=O)c3ccccc3)CC2)cc1` yielded a z-score of -0.282. For `Cc1cc(NC(=O)CCC(=O)N(CCC(C)C)CC(=O)NCC2CCCO2)no1` (stereo unspecified), the z-score was -0.157. `Cc1cc(NC(=O)CSc2nc(C3CC3)nc3sc(C)c(C)c23)no1` was tested, and the z-score was active: 12.4. For `Cc1cccc(Cn2c(C(=O)OC(C)C)cc3c2ccn3C)c1`, the z-score was -0.191. Compound `O=C(CSc1nnc2c(n1)[nH]c1ccccc12)Nc1ccc2c(c1)OCO2` has a z-score of -0.211. `COc1ccc(N2CCN(c3nc(NC(C)(C)C)nc(N4CCCCC4)n3)CC2)cc1` showed a z-score of -0.123. `CCCOc1ccc(Cn2c(C)nc([N+](=O)[O-])c2SCC(O)COC)cc1[N+](=O)[O-]` (stereo unspecified) showed a z-score of -0.12. Compound `O=c1c(-c2nc3ccccc3s2)cccn1Cc1ccc(Cl)cc1` has a z-score of -0.0537. Compound `CC(C)N1C(=O)CCC1C(=O)NC1CCCC1` (stereo unspecified) has a z-score of 0.643. `COc1ccc(CC(=O)N2CC(C)CC(C)C2)cc1` (stereo unspecified) gave a z-score of -0.803. In the case of `CCn1c(C)c(C(C)=O)c(N2CCN(C(=O)c3ccco3)CC2)nc1=S`, the z-score is reported as 0.278. `O=C(CSc1nc(-c2ccc(F)cc2)cs1)Nc1ccccn1` gave a z-score of -0.248. Work on `Cc1cccc(NC(=O)c2cnc3scc(C)n3c2=O)c1` yielded a z-score of -0.165. `CCOc1ccccc1NC=C1C(=O)OC2(CCCCC2)OC1=O` was tested, and the z-score was 0.615. Compound `CCCCCOC(=O)c1[nH]c2c(c1C)C(=O)C(C(=O)OC)C(C)C2` (stereo unspecified) has a z-score of -0.309. `Cc1ccc(CNC(=O)c2sc3nc4c(c(C(F)(F)F)c3c2N)CCC4)cc1` was tested, and the z-score was -1.59. In the case of `CCN(CC)S(=O)(=O)c1ccc(C)c(NC(=O)COC(=O)c2ccc(C)c(S(=O)(=O)N3CCOCC3)c2)c1`, the z-score is reported as -0.0709. `N#Cc1c(C(F)(F)F)cc(-c2cccc(Cl)c2)[nH]c1=O` showed a z-score of -1.11. With `COc1ccc(Cn2c(=O)[nH]c3cc(C(=O)NCCCN4CCCC4)ccc3c2=O)cc1` the z-score was -0.345. With `O=C1COc2ccc(C(=O)c3ccccc3C(=O)NCc3ccco3)cc2N1` the z-score was 0.0372. In the case of `COc1ccc2c(c1OC)C(=O)OC2c1c(O)nc(SC)n(-c2ccccc2)c1=O` (stereo unspecified), the z-score is reported as -0.0012. `N/C(Cc1ccc(Cl)cc1Cl)=N\OC(=O)Cc1ccc(Cl)cc1` showed a z-score of -0.156. `COc1ccc2nc(Nc3nc(CSc4nc5ccccc5[nH]4)cc(=O)[nH]3)nc(C)c2c1` was tested, and the z-score was 0.0342. `COc1ccccc1N1CCN(C(=O)CSc2ccccc2)CC1` gave a z-score of -0.145. With `COC(=O)CN(c1ccc(F)cc1)S(=O)(=O)c1ccccc1` the z-score was 0.0769. `O=C(COC(=O)c1cc(-c2cccs2)nn1-c1ccccc1)Nc1cccc([N+](=O)[O-])c1` gave a z-score of -0.285. Work on `CCOC(=O)Nc1cc2c(cc1C(C)=O)OCO2` yielded a z-score of 0.657. With `CC(=O)c1cc2c(cc1NC(=O)CN1CCN(C(=O)c3ccco3)CC1)OCO2` the z-score was 0.548. Work on `CCCC(=O)NC(=S)Nc1ccccc1OC` yielded a z-score of 0.0794. `COc1nc(SC)nc(Cl)c1Cc1ccc(OC(C)C)cc1` gave a z-score of 0.013. `COc1ccc(CN2CCNC(=O)C2CC(=O)O)cc1OC` (stereo unspecified) was tested, and the z-score was active: 3.61. Compound `CCCCOC(=O)Nc1ccc2c(C)cc(=O)oc2c1` has a z-score of -0.24. `Cc1ccc(C(C(=O)NC(C)(C)C)N(C(=O)c2csnn2)c2cccc(F)c2)o1` (stereo unspecified) showed a z-score of 0.169. Work on `COc1ccc(NC(=O)C2CCN(c3nc(C)cc(C)n3)CC2)cc1` yielded a z-score of -0.302. Work on `Cc1cc(N2CCC(C(=O)Nc3ccc(F)cc3)CC2)nc(-c2ccccc2)n1` yielded a z-score of -1.05. For `COc1ccc2c(c1)CCc1c(C(=O)N3CCOCC3)noc1-2`, the z-score was 0.766. `CC1(C)N=C(N)N=C(N)N1c1ccc(F)cc1F` gave a z-score of -0.421. `CC(C)(C)c1[nH]nc2c1C(C1C=CCCC1)C(C#N)=C(N)O2` (stereo unspecified) gave a z-score of 0.102. Compound `CCOC(=O)C1CCCN(C(=O)c2cccs2)C1` (stereo unspecified) has a z-score of -0.161. With `COC(=O)Cn1c2ccc(C)cc2c2nc(C)sc21` the z-score was 0.127. For `CCOC(=O)c1cn(-c2ccccc2)nc1-c1ccncc1`, the z-score was 0.74. With `CCCN1C2=NS(=O)(=O)CCN2c2ccccc21` the z-score was 0.249. `COc1ccc(OCCSc2nnc(CC(=O)Nc3cccc(Cl)c3Cl)n2C)cc1` showed a z-score of -1.01.
